Assay results: PMC4336329 (PLoS ONE, 2015)
Out of some 310,000 compounds screened, about 2,200 (0.71%) showed an effect of 50% or more. Effects have a minus sign here. The list shows a part of the results.

Molecular target: human ether-à-go-go-related gene (hERG) potassium channel (human, UniProt Q12809)
Experiment: primary screen, population patch clamp on CHO cells stably expressing hERG

human ether-à-go-go-related gene (hERG) potassium channel, sequence (Q12809 whole entry, looked up): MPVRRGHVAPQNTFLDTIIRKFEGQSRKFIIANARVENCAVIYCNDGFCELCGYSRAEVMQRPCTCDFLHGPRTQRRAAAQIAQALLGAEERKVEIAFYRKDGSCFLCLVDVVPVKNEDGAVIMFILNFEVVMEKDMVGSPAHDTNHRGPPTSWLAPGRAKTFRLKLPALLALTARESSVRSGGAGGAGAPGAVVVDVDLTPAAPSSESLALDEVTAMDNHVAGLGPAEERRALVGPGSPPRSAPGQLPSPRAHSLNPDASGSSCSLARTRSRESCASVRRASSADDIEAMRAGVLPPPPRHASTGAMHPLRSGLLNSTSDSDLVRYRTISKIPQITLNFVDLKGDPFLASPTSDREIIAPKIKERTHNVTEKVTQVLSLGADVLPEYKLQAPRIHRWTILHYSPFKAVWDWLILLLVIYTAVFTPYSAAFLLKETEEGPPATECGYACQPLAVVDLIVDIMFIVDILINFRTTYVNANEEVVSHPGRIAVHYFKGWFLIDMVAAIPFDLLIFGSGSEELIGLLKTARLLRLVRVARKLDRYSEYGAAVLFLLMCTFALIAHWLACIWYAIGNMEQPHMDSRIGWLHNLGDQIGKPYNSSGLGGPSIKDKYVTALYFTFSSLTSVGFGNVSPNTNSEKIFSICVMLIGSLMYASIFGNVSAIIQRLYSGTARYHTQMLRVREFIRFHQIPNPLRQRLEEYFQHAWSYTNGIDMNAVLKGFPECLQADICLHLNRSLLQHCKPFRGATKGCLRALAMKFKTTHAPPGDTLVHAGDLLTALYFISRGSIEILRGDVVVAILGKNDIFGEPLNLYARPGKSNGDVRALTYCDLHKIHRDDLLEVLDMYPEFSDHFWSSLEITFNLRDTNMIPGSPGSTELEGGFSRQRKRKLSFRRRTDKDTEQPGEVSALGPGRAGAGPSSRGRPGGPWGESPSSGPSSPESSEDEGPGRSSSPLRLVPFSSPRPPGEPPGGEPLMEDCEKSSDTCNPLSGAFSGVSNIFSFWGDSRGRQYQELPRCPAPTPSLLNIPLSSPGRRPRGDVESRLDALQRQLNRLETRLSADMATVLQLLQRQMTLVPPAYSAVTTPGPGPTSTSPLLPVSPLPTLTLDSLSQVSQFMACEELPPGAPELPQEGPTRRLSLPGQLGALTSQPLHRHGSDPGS

Row | Compound | hERG current change (%, negative = inhibition) at 1uM [%]
1 | CC(=O)NC(CC(=O)NCC(c1ccco1)N(C)C)c1ccccc1 (centres unmarked) | 7.6
2 | CCCn1c(NCc2cc(OC)ccc2OC)nc2ccccc21 | -19.7
3 | COc1ccc2[nH]cc(S(=O)(=O)c3ccc(C(C)C)cc3)c(=O)c2c1 | 13.6
4 | CC/C=C/C(=O)N1CC2(CC(c3cccc(NC(=O)CC(c4ccccc4)c4ccccc4)c3)=NO2)C[C@@H]1C(N)=O (some centres unmarked) | 15.5
5 | O=C(OCCN1C(=O)c2cccc3c(N4CCOCC4)ccc(c23)C1=O)c1ccc(Cl)cc1Cl | 11.4
6 | Cn1nc(C(F)(F)F)cc1C(=O)O | 17.3
7 | CCc1ccc(NC(=O)C(C)OC(=O)c2ccc(NS(=O)(=O)c3ccc(C)c([N+](=O)[O-])c3)cc2)cc1 (centres unmarked) | 6.26
8 | CCOC(=O)C(=CNc1cc(C)nn1-c1ccc(Cl)cc1)C(=O)OCC | 19.5
9 | CCn1cc(CN2CCCC(CNS(=O)(=O)Cc3ccccc3)C2)cn1 (centres unmarked) | 2.78
10 | COc1ccc(S(=O)(=O)N2CCCc3ccccc32)cc1[N+](=O)[O-] | 9.51
11 | O=[N+]([O-])c1cccc(N=Cc2sc3ccccc3c2O)c1 | 9.85
12 | Cl.Nc1ccc(N)c(C(=O)O)c1 | 13.5
13 | O=C(NCC1CC1)Nc1ccccc1F | 9.92
14 | CCOc1ccccc1NC1=CC(=O)CC(c2ccccc2)C1 (centres unmarked) | -0.759
15 | COC(=O)Cn1c(=NC(=O)c2nc3ccccc3s2)sc2cc(S(N)(=O)=O)ccc21 | 10.8
16 | Cc1nnc(SCC(=O)Nc2cccc(C(F)(F)F)c2)[nH]c1=O | 12.1
17 | CCc1ccccc1S(=O)(=O)Cc1ccc(C(=O)NCc2cccs2)o1 | -0.23
18 | O=C(O)c1ccc(-c2noc(-c3cccc(F)c3)n2)cc1 | 12.7
19 | CN(c1cccc(NC(=O)CN(c2cccc(F)c2)S(C)(=O)=O)c1)S(C)(=O)=O | 11.3
20 | CC(C)(C)NC[C@H](O)COc1cccc2c1CCCC2=O.Cl | 11.6
21 | COc1ccc(/C=C/c2nc(N)nc(-c3ccccc3O)n2)cc1OC | 2.24
22 | O=S1(=O)CC2SC(=S)N(c3ccccc3)C2C1 (centres unmarked) | 10.7
23 | CCn1c(SCC(=O)Nc2sc3c(c2C#N)CCC(C(C)(C)C)C3)nnc1-c1ccco1 (centres unmarked) | 14.1

Row | Compound | hERG current change (%, negative = inhibition) at 1uM [%]
24 | Cc1ccc(N/N=C/C=C/c2ccco2)cc1 | 12.3
25 | COC(=O)c1ccc(N/C(=N/S(=O)(=O)c2ccccc2)c2ccccc2)cc1 | 2.32
26 | CCOc1ccc2c(c1)c(N=O)c(O)n2C | 7.07
27 | COC(=O)c1ccc(CN2C(=O)NC3(CCCc4ccccc43)C2=O)o1 (centres unmarked) | 2.4
28 | CCN(Cc1ccccc1)C(=O)COC(=O)c1cc(=O)[nH]c2ccccc12 | 3.62
29 | COC(=O)NCC(c1ccc2c(c1)OCO2)N1CCN(c2ccc(OC)cc2)CC1 (centres unmarked) | 8.79
30 | CCc1cc2cc(C(=O)Nc3ccc(C)cc3)sc2s1 | 10.6
31 | O=C(O)c1ccc(-n2c(-c3ccc(Br)cc3)n[nH]c2=S)cc1 | 6.26
32 | CC1=C(C)CC2C(=O)N(c3cccc4ccccc34)C(=O)C2C1 (centres unmarked) | 6.97
33 | COc1ccc(Cl)cc1C(=O)Nc1ccncc1 | 5.55
34 | COC(=O)[C@@H]1CCCN1C(=O)CCc1nnc(CCc2c[nH]c3ccccc23)o1 | 14.1
35 | COc1ccccc1C(CNC(=O)c1ccco1)N1CCCC1 (centres unmarked) | 11.2
36 | Cc1csc(Sc2ccc(S(=O)(=O)N3CCCC3)cn2)n1 | -2.28
37 | CS(=O)(=O)Nc1ccc(C2=NN(C(=O)c3ccccc3)C(c3cccs3)C2)cc1 (centres unmarked) | 4.97
38 | Cc1ccc(S(=O)(=O)Nc2cc(=O)[nH]c(SCc3ccc(Cl)cc3)n2)cc1 | 7.67
39 | COc1ccc(OC)c(/C=N/OC(=O)Nc2ccc(Cl)cc2)c1 | 4.19
40 | COc1ccc(C(=O)N(CC2CCCO2)C(C(=O)NC2CCCC2)c2ccc(C)cc2)cc1OC (centres unmarked) | -7.31
41 | CCCCCOC(=O)C1C(c2ccccc2)C(C(=O)O)C1c1ccccc1 (centres unmarked) | 4.59
42 | Cn1nc(-c2ccccc2)c(CO)c1Sc1ccccc1 | 18
43 | CCN(CC(=O)Nc1c(F)cccc1F)C(=O)c1ccc(COc2ccccc2)o1 | 10.5
44 | O=C1CC2CS(=O)(=O)CC2N1C1CCCCC1 (centres unmarked) | 15.6
45 | O=c1cc(NCCO)c2ccccc2o1 | 7.7
46 | N#Cc1ccc(NC(=O)c2cc(=O)c3ccccc3o2)cc1 | -12.9

Row | Compound | hERG current change (%, negative = inhibition) at 1uM [%]
47 | COc1ccc(CNC(=O)CCn2cccc2)cc1 | 3.99
48 | Nc1cccc(C(=O)Nc2ccccc2Cl)c1 | 14.5
49 | CCOc1ccc(S(=O)(=O)NCC(=O)NC2CCCCC2)cc1 | 7.89
50 | COc1ccc(OC)c(N(CC(=O)NCc2ccncc2)S(C)(=O)=O)c1 | 17.7
51 | COc1ccc(-c2[nH]ncc2CN2CCCO2)cc1F | 16.3
52 | COc1ccc(Cc2nnc(NC(=O)c3ccc(OC)c(OC)c3)s2)cc1OC | -0.781
53 | Cc1onc(-c2ccccc2)c1C(=O)NNC(=O)c1ccccc1O | 8.33
54 | COC(=O)c1cc(-c2cccc([N+](=O)[O-])c2)c2c(=O)[nH]c(=O)n(C)c2n1 | 6.09
55 | Cc1ccccc1N1CCN(c2ncnc3scc(-c4cccs4)c23)CC1 | -11.8
56 | Cc1cccc(C(=O)Nc2nccs2)c1[N+](=O)[O-] | 14
57 | COc1ccc(-n2nc3c(c2NC(=O)c2c(F)cccc2Cl)CS(=O)C3)cc1 (centres unmarked) | 7.81
58 | COCCCNC(=O)Cn1cc(/C=C(\C#N)C(=O)NC2CC2)c2ccccc21 | 2.96
59 | COc1cc(CN(C)CCc2ccccn2)cc(OC)c1OC.O=C(O)C(=O)O | 8.32
60 | NC(=O)c1oc2ccc(Cl)cc2c1N | 8.2
61 | COc1cc2c(cc1/C=C/C(=O)O)OC(C)C2 (centres unmarked) | 1.07
62 | O=C(COC(=O)C12CC3CC(CC(C3)C1)C2)Nc1ccc2[nH]c(=O)[nH]c2c1 | 12.4
63 | COc1ccc(C2C(C(=O)N3CCCC3)c3cc(OC)c(OC)cc3C(=O)N2C)cc1 (centres unmarked) | 11.8
64 | Nc1ccccc1N1C(=O)c2cccc3cccc(c23)C1=O | 5
65 | O=C(CCS(=O)(=O)c1ccc(F)cc1)Nc1nc(-c2ccccn2)cs1 | 6.38
66 | CC(=O)N1CCN(Cc2nc3cc(NC(=O)c4ccccc4)ccc3n2C)CC1 | 15.1
67 | Cc1ccc(OCCOc2cccc(/C=N/NC(N)=O)c2)cc1 | 16
68 | COCCNC(=O)C1CC(=O)N(C2CCCCC2)C1 (centres unmarked) | 11.6
69 | COc1ccc(-n2c(-c3cc(-c4ccccc4)sc3N)n[nH]c2=S)cc1 | 12.7

Row | Compound | hERG current change (%, negative = inhibition) at 1uM [%]
70 | Cc1ccc(S(=O)(=O)/N=C2\SC(CC(=O)Nc3ccc(F)cc3)C(=O)N2c2ccccc2)cc1 (centres unmarked) | 12.6
71 | CCC(=O)OCC(=O)Nc1cc(C)c(C)cc1[N+](=O)[O-] | 8.26
72 | CCCOC(=O)Nc1ccc(S(=O)(=O)Nc2ncccn2)cc1 | 0.276
73 | Cc1cccc(C(C)(C)C)c1OCCN1CCCC1 | 3.03
74 | COCCn1nnnc1C(c1ccc(OC)cc1OC)N1CCN(c2ccccc2F)CC1.Cl (centres unmarked) | -2.19
75 | CC1CC1C(=O)Nc1nc2ccc(S(C)(=O)=O)cc2s1 (centres unmarked) | 6.81
76 | COc1ccc(OC)c(N(CC(=O)N2CCC(C)CC2)S(=O)(=O)c2ccccc2)c1 | -12.6
77 | CC[C@@H](C)[C@@H](C(=O)N1CCNCC1)n1cc(CCC(=O)O)nn1.Cl | 2.7
78 | COc1ccccc1NC(=O)CCS(=O)(=O)c1cc2c(cc1Cl)NC(=O)CO2 | 12.7
79 | CCc1nnc(NC(=O)c2cc(S(=O)(=O)N3CCN(c4ccccc4)CC3)ccc2Cl)s1 | 8.28
80 | COc1ccc(CCC(=O)N2CCN(c3cccc(C)c3C)CC2)cc1 | 9.53
81 | Cc1ccc(C(=O)Nc2ccc3c(c2)OCO3)o1 | 10.2
82 | O=S(=O)(NC1CCCCC1N1CCN(c2ccccc2F)CC1)c1ccc(Cl)cc1 (centres unmarked) | 3.96
83 | Cc1ccc(C(=O)NC2CC(=O)N(c3ccc4c(c3)OCCO4)C2)cc1[N+](=O)[O-] (centres unmarked) | 17.4
84 | COc1ccc(N2CCN(C3CCCN(C(=O)CN4CCOC4=O)C3)CC2)cc1 (centres unmarked) | 5.58
85 | CCN(CC)CCCn1c(=S)[nH]c2ccc(Cl)cc2c1=O | -25.5
86 | CC(O)CNCCCOc1cccc(C(F)(F)F)c1.O=C(O)C(=O)O (centres unmarked) | 5.23
87 | CC(C)CC(=O)N1CCN(S(=O)(=O)c2ccccc2)CC1 | 8.07
88 | O=C(NC1CCCCC1)c1nn2c(C(F)(F)F)cc(-c3ccco3)nc2c1Br | 13.8
89 | CCOC(=O)C1(C)NC(c2ccco2)C2C(=O)N(C)C(=O)C21 (centres unmarked) | 10.1
